Assay results: PubChem BioAssay AID493208 (National Center for Advancing Translational Sciences (NCATS), 2011)
The campaign covered roughly 44,000 compounds. About 340 (0.77%) were called active. Another 5% or so got no clear call; they are omitted. Calls come from the whole dose curve; as a rule, active = well fitted inhibition curve with a large enough effect; inconclusive = small, poorly fitted or top-dose-only effect; inactive = flat fitted curve, though single readings scatter. Some of the results follow.

Assay: Acumen qHTS Assay for Inhibitors of the mTORC1 Signaling Pathway in MEF (Tsc2-/-, p53-/-) Cells: Sytravon;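 note: plate controls were DMSO for no effect and rapamycin for full effect; nearly all actives have a fitted effect of over 50% in size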
Details: phospho-rpS6 immunofluorescence/PI, 24 h; series mostly up to 38.3 µM; activity change, negative = inhibition: at the top concentration
In short: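 Cell-based qHTS: Tsc2-/- p53-/- MEF, 24 h cpd, 37 °C; fix/perm, anti-phospho-S6 Alexa-488 + PI; Acumen 488 nm scan; pS6/PI ratio, % positive cells; rapamycin 7.5 nM = inhibition ref; PI count = viability.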

Activity change, negative = inhibition, inactive:
CCCSc1nc2sc3c(c2c(=O)n1-c1ccc(C)cc1)CCCC3 3.79%
CCOC(=O)c1c(S(=O)(=O)NCC(=O)Nc2cccc(SC)c2)c(C)n(C)c1C -11.4%
CC1=C(c2ccc(C(C)C)cc2)S(=O)(=O)NC1=NCc1ccc(OC(C)C)cc1 -1.76%
Cc1ccc(CNC(=O)C2CCCN(c3nc4ccccc4n4cccc34)C2)cc1 (stereo not drawn) 8.39%
CC1CCN(CCCNC(=O)CN2C(=O)CSc3ccc(S(=O)(=O)N4CCCCC4)cc32)CC1 8.2%
COc1ccc(C(C)NC(=O)CN(c2cc(OC)ccc2OC)S(=O)(=O)c2ccccc2)cc1 (stereo not drawn) 5.21%
Brc1cccc(-c2nn(-c3ccccc3)c3c2cnc2cc4c(cc23)OCO4)c1 -1.74%
COCCn1c(CNC(=O)c2ccccc2C)nc2cccnc21 -1.17%
COc1ccc(NC(=O)Nc2cccc(-c3noc(C)n3)c2)cc1 -4.8%
O=C(c1cccs1)N1CCCc2cc(NS(=O)(=O)c3ccc(Br)cc3)ccc21 0.106%
CCc1cccc(C)c1NC(=O)C1CCN(S(=O)(=O)c2cc(Br)cc3c2N(C(C)=O)CC3)CC1 -6.9%
COc1cccc(-n2ccnc2SCC(=O)Nc2cccc3ccccc23)c1 -2.97%
O=C(NCc1ccccc1Cl)c1ccc2c(c1)ncn2-c1cccc(F)c1 -10.1%
COc1ccc(-n2c(CC3C(=O)Nc4ccc(C)cc43)nc3ccccc3c2=O)cc1 (stereo not drawn) 0.587%
CCCSC1=NC2(CCN(C(=O)NC3CCCCC3)CC2)N=C1c1ccc(OC)cc1 -6.73%
O=c1c2c3c(sc2nnn1CCCCOc1ccc(Cl)cc1)CCCC3 1.82%
COc1cc(-c2noc(-c3cc4cccc(C)c4oc3=O)n2)cc(OC)c1OC 3.88%
CCOc1ccccc1-n1c(N)c(C(=O)OC)c2nc3ccccc3nc21 -2.46%
COc1ccc(-c2nsc(NC(=O)c3oc4ccc(Cl)cc4c3C)n2)cc1 0.969%
O=C(Nc1ccc(F)cc1)c1nc(SCc2ccccc2F)ncc1Cl -13.4%
N#C/C(=C/c1ccc(O)cc1)c1nc(-c2ccc(-c3ccccc3)cc2)cs1 0.591%
Cc1nc(-c2cccc(F)c2)sc1CCNC(=O)Cc1ccc(F)cc1 -5.45%
Cc1ccc(OCCn2c(CNc3ccccc3C)nc3ccccc32)cc1 -16.5%
Cn1c(C(=O)NCc2ccccc2Cl)cc2sc(Cl)cc21 1.53%
Cc1cc(NC(=O)c2cnn(-c3ccccc3)c2-n2cccc2)ccc1Br -11.8%
CCc1cccc(NC(=O)Cn2c(=O)n(CC3CCC(C(=O)NC)CC3)c(=O)c3sccc32)c1 (stereo not drawn) 7.12%
COc1cccc(CNC(=O)CN(c2ccc(C)cc2)S(=O)(=O)N(C)C)c1OC -0.711%
COc1ccc(-c2csc3ncnc(Nc4ccc(OC)cc4OC)c23)cc1 0%
